Test results published in PubChem BioAssay AID1508623 (National Center for Advancing Translational Sciences (NCATS), 2021).
Out of some 48,000 compounds screened, about 450 (0.94%) were called active. Another 19% or so got no clear call; they are omitted. Calls come from the whole dose curve; as a rule, active = well fitted inhibition curve with a large enough effect; inconclusive = small, poorly fitted or top-dose-only effect; inactive = no such curve, though single readings can be large or run the other way. The list shows a part of the results.

Experiment: Primary qHTS for Identification of Small Molecule Inhibitors of Huntingtin Promoter Activity; note: nearly all actives have a fitted effect of over 50% in size
Conditions: HEK293 HTT promoter firefly luciferase reporter (activity 0% = vehicle and -100% = no light), 24 h; series mostly up to 57.5 µM; activity change, negative = inhibition: at the top concentration
Outline: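 HEK293 cells carrying firefly luciferase reporters were seeded at 2,500 per well in Opti-MEM and cultured for 24 h. They were then treated with compounds at up to 57.5 uM final for 24 h at 37 degrees C before Dual-Glo luminescence readout.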

Activity change, negative = inhibition, inactive:
O=C(c1c2c(nc3ccccc13)C(=O)N(C1CCCCC1)C2)N1CCN(c2ccc(F)cc2)CC1 -20.1%
CCOC(=O)c1c(S(=O)(=O)N2CCCC(C(=O)Nc3ccc(OCC)cc3)C2)c(C)n(C)c1C (configuration not stated) -11.3%
Cc1ccc(S(=O)(=O)c2cn(Cc3cccc(F)c3)c3cc(N4CCCC4)c(F)cc3c2=O)cc1 -4.93%
COc1ccc(C)cc1Nc1nc2c(S(=O)(=O)c3cccc(Cl)c3)nnn2c2ccsc12 -17.1%
CCCOc1ccccc1-c1nc(SCC(=O)c2ccccc2)n[nH]1 -33.5%
CCN1CCN(CCCNC(=O)c2ccc3nc(Cc4ccc(OC)cc4)oc3c2)CC1 -9.88%
Cc1cc(C)n(C(C)CC(=O)NCc2ccccc2C)n1 (configuration not stated) 8.44%
COc1ccc(Br)cc1C(=O)Nc1ccc2oc(-c3cccnc3)nc2c1 5.48%
CC(=O)Nc1ccc(S(=O)(=O)N2CCC(c3ccncc3)CC2)cc1 -12.6%
CCCCN(CCCC)c1ncnc2c1cnn2-c1cccc(C)c1 -21.6%
Cc1ccccc1C(=O)c1cccn1CC(=O)NCc1ccc(Cl)cc1 2.72%
COc1ccccc1CNC(=O)Cc1c(C)c2c(cc(C)c3c(C)c(C)oc32)oc1=O -1.56%
Cc1ccc2c(CN3CCN(Cc4ccccc4Cl)CC3)cc(=O)oc2c1 -6.92%
COc1ccc(CCNC(=O)CCCn2c(=O)c3cccn3c3cccnc32)cc1OC 7.59%
COc1ccc(C2CC(=O)Nc3c2c(=O)nc2c(C)cccn32)cc1OC (configuration not stated) -9.62%
CCN(CC)c1nn2c(=O)c(C(=O)NCCc3ccc(C)cc3)cnc2s1 -2.57%
COc1ccc(NC(=O)c2ccc(CN3C(=O)CCn4nc(C)cc43)cc2)c(OC)c1 10.1%
CCn1c2ccccc2c2nnc(N3CCN(c4ccc(F)cc4)CC3)nc21 4.86%
CCOC(=O)c1c(NC(=O)COc2cccc(C(F)(F)F)c2)sc2c1CCC(C)C2 (configuration not stated) -20.7% [at 11.5 µM]
CCOC(=O)c1cc2c(=O)n3ccccc3nc2n(CC2CCCO2)c1=NC(=O)c1ccc(C(C)(C)C)cc1 (configuration not stated) -8.51%
Cc1nc2sc(C(=O)N(C)Cc3ccccc3)c(NC(=O)c3ccccc3)c2c(C)c1Cl 4.12%
COc1ccc(NC(=O)CSc2cn(CC(=O)N3CCCCC3)c3ccccc23)c(OC)c1 -12.7%
Cc1cc(C)cc(Nc2ncnc3c2nc2n3CCCC2)c1 -22.2%
COc1ccc(N2CC(NC(=O)COc3ccccc3F)CC2=O)cc1OC (configuration not stated) -5.78%
CC(C)CCNC(=O)CN1C(=O)CCn2nc(-c3cn(C)c4ccccc34)cc21 12.3%
COc1ccc(C)c2sc(NC(=O)c3ccc(S(=O)(=O)N4CCCCC4)cc3)nc12 -5.04%
CCCN1CCN(CCCNC(=O)c2cc3c(Cl)nc4ccccc4c3s2)CC1 -16.9%
